Reference: the supplement of paper PMC3334620
In all, about 33,000 sequences were measured (“E-score (-0.5 to 0.5)”: median about -0.043, highest 2% from about 0.37 on). This is one part of the list.

The sequences below were run against T1, Upc2 (UniProt Q12151) (assay: PBM E-score (8-mer binding enrichment) (E-score (-0.5 to 0.5)); higher = stronger / more preferred TF binding; most listed sequences are background and not binding sites). Details: protein concentration: 200 nM; construct: GST-full length.
T1 sequence: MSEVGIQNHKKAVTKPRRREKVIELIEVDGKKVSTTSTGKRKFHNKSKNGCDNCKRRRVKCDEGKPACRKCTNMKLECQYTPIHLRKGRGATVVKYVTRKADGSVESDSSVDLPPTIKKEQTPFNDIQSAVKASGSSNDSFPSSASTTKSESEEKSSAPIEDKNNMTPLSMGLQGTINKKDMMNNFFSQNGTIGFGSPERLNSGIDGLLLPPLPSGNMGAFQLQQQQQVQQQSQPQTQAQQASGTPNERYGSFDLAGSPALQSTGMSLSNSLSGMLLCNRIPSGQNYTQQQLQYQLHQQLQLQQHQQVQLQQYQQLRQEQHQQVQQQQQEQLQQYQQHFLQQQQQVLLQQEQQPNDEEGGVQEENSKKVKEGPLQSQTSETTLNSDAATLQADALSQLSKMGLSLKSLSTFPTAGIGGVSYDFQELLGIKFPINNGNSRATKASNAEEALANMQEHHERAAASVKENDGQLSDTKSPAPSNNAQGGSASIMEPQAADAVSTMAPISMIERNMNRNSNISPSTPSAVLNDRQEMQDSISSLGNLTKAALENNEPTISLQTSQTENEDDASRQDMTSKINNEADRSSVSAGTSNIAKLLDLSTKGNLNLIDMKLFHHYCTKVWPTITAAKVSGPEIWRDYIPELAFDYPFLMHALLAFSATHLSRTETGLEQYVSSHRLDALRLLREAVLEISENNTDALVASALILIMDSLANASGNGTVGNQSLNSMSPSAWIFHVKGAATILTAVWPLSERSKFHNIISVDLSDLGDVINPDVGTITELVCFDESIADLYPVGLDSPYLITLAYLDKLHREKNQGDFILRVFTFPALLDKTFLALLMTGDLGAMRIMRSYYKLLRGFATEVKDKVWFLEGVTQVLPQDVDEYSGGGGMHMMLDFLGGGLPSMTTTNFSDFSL
Summary of the method: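 PURExpress in vitro transcription/translation supplied GST-tagged yeast transcription factors, either full-length or DNA-binding domain. Applied at about 100-200 nM to universal all-10-mer Agilent arrays double-stranded by primer extension, the bound protein was detected with fluorescent anti-GST. E-scores, modified Wilcoxon-Mann-Whitney statistics, were given by the Universal PBM Analysis Suite to ungapped eight-base words pooled with their reverse complements after masliner normalisation.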

Sequence | PBM E-score
ACGGCACG | 0.206
CGTATGTA | 0.387
TACTCACA | -0.0916
CGAGCGAA | 0.199
CGTCGTAG | 0.37
TTGCCCAA | -0.0249
GTCGAGAC | 0.0577
CCTTGACC | -0.326
GGCGAGAA | -0.0746
AGTCCGTG | -0.0992
CTGAACTA | -0.104
CCTACCTA | -0.153
AAAGCCGA | -0.111
CAGAGCCC | -0.207
CCGTGGGA | -0.295
CATGATCC | -0.166
GCGCCGAA | -0.0176
ACCCAGCC | -0.218
GGCGGTCA | 0.0352
TAGTTAAA | 0.0817
GCAAGAGA | -0.0845
GCTCGTAC | 0.477

Sequence | PBM E-score
GGCGGTTA | 0.0382
ACCGATTC | 0.00366
GAATCATC | 0.0541
CATCTGAA | -0.154
AGTCAGGC | -0.087
CGTCGTCA | 0.055
TCGAACCA | -0.125
CTGTGATA | -0.196
ATCCGAAT | 0.218
ATAGACTG | -0.0992
CGAAACTC | 0.0921
CCGGAACG | 0.376
AAGGATCT | -0.19
AGCAGGAA | -0.0702
ACGACCAG | 0.296
TGTATTAA | 0.126
ACCTCTAA | -0.0519
AGGCTGGG | -0.222
CGATATTC | 0.0159
AATACATG | -0.187
ACGCGCGC | 0.214
AAACCCCA | -0.171

Sequence | PBM E-score
CTATCAGA | -0.13
CTGTGGTC | -0.0389
AGCATTAA | 0.0875
GTCTTCCA | -0.313
ACATAATG | -0.0246
ATAATTAC | 0.0651
ACGATAAT | 0.335
ATCCGCAG | -0.0954
CGCTATAG | -0.00468
GCACGTAA | 0.0974
GTAGTAAA | 0.0535
ACAACTAC | -0.129
GTCTTCAC | -0.0357
GGGGCCTA | -0.225
CTATCAAG | -0.158
AGATATAC | 0.243
AATGGAGG | -0.251
ACAGGAGG | -0.169
GCGACGGA | 0.0438
ATAGAGCC | 0.00631
AAGGACAG | -0.169
GTTAGGTA | 0.18

Sequence | PBM E-score
ATATCGTA | 0.427
CTGCGAAC | -0.0121
AAAGACTC | -0.212
ATATTAGA | 0.0328
GTGTTAAA | 0.121
CCATGCCG | -0.135
GGCAGGTA | -0.0971
CCAAGGTA | -0.0848
ACCGGCTA | -0.145
GGAAGCGA | 0.145
GCTTGACC | -0.149
AAGGATAA | -0.194
AAAGGAGA | -0.22
AGAAACGC | -0.037
ATGTCCGG | -0.241
ATAACGCA | -0.0164
GTAGGTAA | -0.0947
TAACCACA | 0.00669
TGTAAACA | -0.0818
CATCGCTA | 0.0355
